Reference: the supplement of paper PMC8728848
Some of the results follow.

Legend:
Experiment in all cases: glycan array binding signal (z-score within array); higher = stronger binding
Conditions in all cases: glycan notation: IUPAC condensed, linker removed
[1] = biological target: Gal(a1-3)Gal(b1-3)GlcNAc
Summary of the method: (§1)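 The binding signal is a Z-score computed within each array and averaged over linkers. Arrays of the same protein sequence at different concentrations or buffers were also averaged together. Data originate from 3228 arrays in the Consortium for Functional Glycomics database, kept only where the protein sequence was available.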

[2] = biological target: Gal(a1-3)Gal(b1-3)GlcNAc(b1-2)Man
Summary of the method: as §1

[3] = biological target: Gal(a1-3)Gal(b1-3)GlcNAc(b1-2)Man(a1-3)[Gal(a1-3)Gal(b1-3)GlcNAc(b1-2)Man(a1-6)]Man(b1-4)GlcNAc(b1-4)GlcNAc
Summary of the method: as §1

[4] = biological target: Gal(a1-3)Gal(b1-3)GlcNAc(b1-3)GalNAc
Summary of the method: as §1

[5] = biological target: Gal(a1-3)Gal(b1-3)GlcNAc(b1-6)GalNAc
Summary of the method: as §1

[6] = biological target: Gal(a1-3)Gal(b1-3)[Fuc(a1-4)]GlcNAc(b1-2)Man(a1-3)[Gal(a1-3)Gal(b1-3)[Fuc(a1-4)]GlcNAc(b1-2)Man(a1-6)]Man(b1-4)GlcNAc(b1-4)GlcNAc
Summary of the method: as §1

[7] = biological target: Gal(a1-3)Gal(b1-4)Glc
Summary of the method: as §1

[8] = biological target: Gal(a1-3)Gal(b1-4)GlcNAc
Summary of the method: as §1

[9] = biological target: Gal(a1-3)Gal(b1-4)GlcNAc(b1-2)Man
Summary of the method: as §1

[10] = biological target: Gal(a1-3)Gal(b1-4)GlcNAc(b1-2)Man(a1-3)[Gal(a1-3)Gal(b1-4)GlcNAc(b1-2)Man(a1-6)]Man(b1-4)GlcNAc(b1-4)GlcNAc
Summary of the method: as §1

[11] = biological target: Gal(a1-3)Gal(b1-4)GlcNAc(b1-3)GalNAc
Summary of the method: as §1

[12] = biological target: Gal(a1-3)Gal(b1-4)GlcNAc(b1-6)GalNAc
Summary of the method: as §1

[13] = biological target: Gal(a1-3)Gal(b1-4)[Fuc(a1-3)]GlcNAc
Summary of the method: as §1

[14] = biological target: Gal(a1-3)Gal(b1-4)[Fuc(a1-3)]GlcNAc(b1-2)Man(a1-3)[Gal(a1-3)Gal(b1-4)[Fuc(a1-3)]GlcNAc(b1-2)Man(a1-6)]Man(b1-4)GlcNAc(b1-4)GlcNAc
Summary of the method: as §1

[15] = biological target: Gal(a1-3)GalNAc
Summary of the method: as §1

[16] = biological target: Gal(a1-3)[Gal(a1-4)]Gal(b1-4)GlcNAc
Summary of the method: as §1

[17] = biological target: Gal(a1-4)Gal(b1-3)GlcNAc(b1-2)Man(a1-3)[Gal(a1-4)Gal(b1-3)GlcNAc(b1-2)Man(a1-6)]Man(b1-4)GlcNAc(b1-4)GlcNAc
Summary of the method: as §1

[18] = biological target: Gal(a1-4)Gal(b1-4)Glc
Summary of the method: as §1

[19] = biological target: Gal(a1-4)Gal(b1-4)GlcNAc
Summary of the method: as §1

[20] = biological target: Gal(a1-4)Gal(b1-4)GlcNAc(b1-2)Man(a1-3)[Gal(a1-4)Gal(b1-4)GlcNAc(b1-2)Man(a1-6)]Man(b1-4)GlcNAc(b1-4)GlcNAc
Summary of the method: as §1

[21] = biological target: Gal(a1-4)Gal(b1-4)GlcNAc(b1-3)Gal(b1-4)Glc
Summary of the method: as §1

[22] = biological target: Gal(a1-4)GlcNAc
Summary of the method: as §1

[23] = biological target: Gal(a1-6)Glc
Summary of the method: as §1

[24] = biological target: Gal(b1-2)Gal
Summary of the method: as §1

[25] = biological target: Gal(b1-3)Gal
Summary of the method: as §1

[26] = biological target: Gal(b1-3)Gal(b1-4)GlcNAc
Summary of the method: as §1

[27] = biological target: Gal(b1-3)GalNAc
Summary of the method: as §1

[28] = biological target: Gal(b1-3)GalNAc(a1-3)[Fuc(a1-2)]Gal(b1-4)Glc
Summary of the method: as §1

[29] = biological target: Gal(b1-3)GalNAc(a1-3)[Fuc(a1-2)]Gal(b1-4)GlcNAc
Summary of the method: as §1

[30] = biological target: Gal(b1-3)GalNAc(b1-3)Gal
Summary of the method: as §1

[31] = biological target: Gal(b1-3)GalNAc(b1-3)Gal(a1-4)Gal(b1-4)Glc
Summary of the method: as §1

[32] = biological target: Gal(b1-3)GalNAc(b1-4)Gal(b1-4)Glc
Summary of the method: as §1

[33] = biological target: Gal(b1-3)GalNAc(b1-4)[Neu5Ac(a2-3)]Gal(b1-4)Glc
Summary of the method: as §1

[34] = biological target: Gal(b1-3)GlcNAc
Summary of the method: as §1

[35] = biological target: Gal(b1-3)GlcNAc(a1-3)Gal(b1-4)GlcNAc
Summary of the method: as §1

[36] = biological target: Gal(b1-3)GlcNAc(a1-6)Gal(b1-4)GlcNAc
Summary of the method: as §1

[37] = biological target: Gal(b1-3)GlcNAc(b1-2)Man
Summary of the method: as §1

[38] = biological target: Gal(b1-3)GlcNAc(b1-2)Man(a1-3)[Gal(b1-3)GlcNAc(b1-2)Man(a1-6)]Man(b1-4)GlcNAc(b1-4)GlcNAc
Summary of the method: as §1

B1: Si Bti9 1b-V5-his (Solanum lycopersicum) (protein)
chain: MQCNRGCDLALASFYVWRGSNLTLISEMFSTSIADIVSYNNRDNIPNQDSVIAGTRINIPFRCDCLNDGEVLGHAFPYRVKSGDTYDLVARNYSDLTTAQWMMKFNSYPENNIPNTVNLSVVVNCSCGNSDVSKDFGLFVTYPVRAEDNLTSVASAANVSEDIIRRYNPAAVSILDIGQGIIYIPGRDRNGNFPPLPTSTDGLSGGAKKGGRADPAFLYKVVINSKLEGKPIPNPLLGLDSTRTGHHHHHH
glycan array binding signal (z-score) [1]: 11.5
glycan array binding signal (z-score) [2]: 6.21
glycan array binding signal (z-score) [3]: 0.09
glycan array binding signal (z-score) [4]: -0.243
glycan array binding signal (z-score) [5]: -0.312
glycan array binding signal (z-score) [6]: 0.176
glycan array binding signal (z-score) [7]: -0.169
glycan array binding signal (z-score) [8]: -0.22
glycan array binding signal (z-score) [9]: -0.206
glycan array binding signal (z-score) [10]: -0.023
glycan array binding signal (z-score) [11]: -0.164
glycan array binding signal (z-score) [12]: -0.005
glycan array binding signal (z-score) [13]: -0.242
glycan array binding signal (z-score) [14]: 0.331
glycan array binding signal (z-score) [15]: -0.264
glycan array binding signal (z-score) [16]: 2.94
glycan array binding signal (z-score) [17]: -0.153
glycan array binding signal (z-score) [18]: -0.25
glycan array binding signal (z-score) [19]: -0.015
glycan array binding signal (z-score) [20]: -0.224
glycan array binding signal (z-score) [21]: -0.307
glycan array binding signal (z-score) [22]: -0.203
glycan array binding signal (z-score) [23]: -0.212
glycan array binding signal (z-score) [24]: 0.494
glycan array binding signal (z-score) [25]: -0.313
glycan array binding signal (z-score) [26]: -0.219
glycan array binding signal (z-score) [27]: -0.244
glycan array binding signal (z-score) [28]: 0.075
glycan array binding signal (z-score) [29]: -0.253
glycan array binding signal (z-score) [30]: -0.268
glycan array binding signal (z-score) [31]: 0.081
glycan array binding signal (z-score) [32]: 0.054
glycan array binding signal (z-score) [33]: -0.386
glycan array binding signal (z-score) [34]: -0.084
glycan array binding signal (z-score) [35]: -0.269
glycan array binding signal (z-score) [36]: -0.373
glycan array binding signal (z-score) [37]: -0.032
glycan array binding signal (z-score) [38]: 0.127
